Laboratory results from PubChem BioAssay AID445 (National Center for Advancing Translational Sciences (NCATS), 2006).
Hit rate of the full screen: of about 110,000 compounds, about 40 (0.04%) were called active. Inconclusive results, whose numbers are uncertain, are shown with a selection of clear calls. Calls follow the shape of the dose curve; as a rule, active = well fitted curve in the direction sought with a large enough effect in the signal ratio (not every such curve was filed as active); inconclusive = small, poorly fitted or top-dose-only effect, or a change in a side signal; inactive = flat fitted curve, though single readings scatter; the % refers to the signal ratio. A potency beside an inconclusive call is a rough fit, not a confirmed value.

Test: IkB Signaling;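 as to IkBa stabilization activation: 0% = basal untreated cells and 100% = reference inhibitor full response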
Conditions: ABC-DLBCL IkBa-CBG/CBR dual luciferase ratio (green luciferase fused to IkBa over red control in OCI-Ly3 lymphoma cells), 4 h; IkBa stabilization activation: at 57.1 µM (top of the series), scaled: untreated 0%, proteasome inhibitor 100% unless noted
Summary of the method: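 Curves were fitted separately to fusion (green), unfused (red) and ratio luminescence, then classed by r2, magnitude and activity. Cells: OCI-Ly3, 4 h compound plus doxycycline at 37C; 10 uM MG-132 defined full response.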
Potency is read from the fitted curve at half-maximal effect.

**Q.** With `Cc1ccc(NC(=O)Cn2c(=O)n(CCC(=O)N3CCc4ccccc4C3)c(=O)c3ccccc32)cc1` as the compound, how does the IkBa stabilization activation read?
**A.** Its IkBa stabilization activation is inconclusive: 4.85% [signal inhibitor].

**Q.** Which IkBa stabilization activation does the source give for `CCOC(=O)CSc1nnc(CNc2ccc(Cl)cc2)n1-c1ccccc1` here?
**A.** Its IkBa stabilization activation is inconclusive: 8.15% [signal inhibitor].

**Q.** With `Cc1oc2ncn(CC(C)C)c(=O)c2c1C(=O)Nc1cc(F)ccc1F` as the compound, how does the “IkBa stabilization activation” value read?
**A.** The value was inactive: -1.57%.

**Q.** For `Nc1ccc2oc(-c3ccccn3)nc2c1`, which “IkBa stabilization activation” value is on record?
**A.** The value was inactive: -1.32%.

**Q.** Which IkBa stabilization activation does the source give for `CC(C)(C)C(=O)NCCc1nc2ccccc2n1CCCCOc1ccc(Cl)cc1` here?
**A.** Its IkBa stabilization activation is inconclusive: -1.9% [signal inhibitor].

**Q.** Which “IkBa stabilization activation” value does the source give for `CCOC(=O)c1cccc(NC(=O)c2cnccn2)c1` here?
**A.** Its value is inactive: -0.597%.

**Q.** With `Cn1c(=O)oc2cc(S(=O)(=O)Nc3ccc4c(c3)OCCO4)ccc21` as the compound, how does the Potency read?
**A.** Its Potency is inconclusive: 3.16 µM [signal inhibitor, full curve].

**Q.** Which “IkBa stabilization activation” value does the source give for `COc1ccc(CCN(C)CCC[C@@](C#N)(c2cc(OC)c(OC)c(OC)c2)C(C)C)cc1OC` here?
**A.** The value was inactive: -3.71%.

**Q.** With `COc1ccc(-n2nc3c(N4CCCC(C(=O)NCc5cccc(F)c5)C4)nnc(C)c3c2C)cc1` (stereo unspecified) as the compound, how does the IkBa stabilization activation read?
**A.** Its IkBa stabilization activation is inconclusive: -0.767% [signal inhibitor].

**Q.** Which “IkBa stabilization activation” value does the source give for `CCOc1ccc(CNC(=O)CSc2nnc(C)c3c(C)n(-c4ccccc4)nc23)cc1` here?
**A.** Its value is inactive: 1.39%.

**Q.** Which IkBa stabilization activation does the source give for `CC(C)CN(CCCNC(=O)CN1C(=O)CSc2ccc(S(=O)(=O)N3CCOCC3)cc21)CC(C)C` here?
**A.** Its IkBa stabilization activation is inconclusive: 1.93% [signal inhibitor].

**Q.** With `CCc1ccccc1N1C(=O)N(Cc2ccccc2C)c2ccccc2S1(=O)=O` as the compound, how does the IkBa stabilization activation read?
**A.** The IkBa stabilization activation was inconclusive: 0.0354% [signal inhibitor].

**Q.** With `CCOC(=O)C1CCN(C(=O)C2CCN(c3nc4ccc(OC)cc4s3)CC2)CC1` as the compound, how does the IkBa stabilization activation read?
**A.** Its IkBa stabilization activation is inconclusive: 0.645% [signal inhibitor].

**Q.** For `COc1ccc(OC)c2sc(N3CCN(C(=O)C4CC4)CC3)nc12`, which “IkBa stabilization activation” value is on record?
**A.** Its value is inactive: -1.97%.

**Q.** For `NC(=NC1C2CC3CC(C2)CC1C3)Nc1ccc(I)cc1` (stereo unspecified), which “IkBa stabilization activation” value is on record?
**A.** The value was inactive: 0.821%.

**Q.** Which “IkBa stabilization activation” value does the source give for `COc1ccc(N2CCN(Cc3nc(-c4ccc(Cl)cc4Cl)no3)CC2)cc1` here?
**A.** The value was inactive: 2.28%.

**Q.** Which IkBa stabilization activation does the source give for `COc1ccc(OC)c(-n2cnc3cc(C(=O)NC4CCCCCC4)ccc32)c1` here?
**A.** Its IkBa stabilization activation is inconclusive: -2.67% [signal inhibitor].

**Q.** Which IkBa stabilization activation does the source give for `COc1ccccc1NC(=O)c1cnc(SCC(=O)N2CCCc3ccccc32)n(C)c1=O` here?
**A.** Its IkBa stabilization activation is inconclusive: 18.4% [signal inhibitor].

**Q.** Which IkBa stabilization activation does the source give for `Cc1cccc2sc(NC(=O)CN(C)S(=O)(=O)c3ccc(Br)s3)nc12` here?
**A.** Its IkBa stabilization activation is inconclusive: -4.7% [signal inhibitor].

**Q.** Which IkBa stabilization activation does the source give for `CCOc1ccc(-c2csc(NC(=O)C3CCCO3)n2)cc1` (stereo unspecified) here?
**A.** Its IkBa stabilization activation is inconclusive: 1.69% [signal inhibitor].

**Q.** With `COC(=O)c1c(Oc2ccc(C(C)=O)cc2)nnc(-c2ccccc2)c1-c1ccccc1` as the compound, how does the IkBa stabilization activation read?
**A.** The IkBa stabilization activation was inconclusive: -0.26% [signal inhibitor].
